The structures appear in SMILES notation.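 1) Cells in 96-well plates. 2) Compound, 48 h, 5 concentrations. 3) Linear interpolation between surrounding doses. 4) Unreached endpoint = highest concentration. Here, GI50 denotes the concentration required for 50% inhibition of growth. TGI: concentration producing complete growth inhibition.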 A value given as a limit tells only on which side of the number the result lay.

The subject of the assay is NCI-H322M lung. Kind of assay: NCI tumour cell line growth inhibition, 48 h.
As to `O=C(NNC(=S)NC(=O)c1ccccc1)c1ccc(OCc2nc3ccc(Cl)cc3[nH]2)cc1`, the GI50 was 1.82 µM and the TGI came to 4.98 µM.
The matching figures for `Cn1cc(-c2cc(N)n3nc(-c4c[nH]c5ccccc45)cc3n2)c2cccnc21`: 12.7 µM and 36.3 µM.
Taken in the same sequence, the figures for `COc1ccc(N2N=C(c3ccc4c(c3)OCO4)CC2c2cccc(NC(=O)CCNS(=O)(=O)c3ccc(Cl)cc3)c2)cc1` (stereo not drawn) were 26.3 µM and over 100 µM.
As for `O=C(N/N=C/c1ccc(Cl)o1)c1[nH]c2ccc(Br)cc2c1-c1ccccc1`, the GI50 is 0.631 µM and the TGI stood at 98.5 µM.
